Hit rate of the full screen: of about 350,000 compounds, about 9,900 (2.8%) were called active. Inconclusive results, whose numbers are uncertain, are shown with a selection of clear calls. The call rests on the fitted dose curve; in most records, active means well fitted activation curve with a large enough effect; inconclusive means small, poorly fitted or top-dose-only effect; inactive means no such curve, though single readings can be large or run the other way. No potency is given beside an inconclusive call; the fits are too rough.
Assay: A quantitative high throughput screen for small molecules that induce DNA re-replication in MCF 10a normal breast cells. Further: nearly all actives have a fitted effect of over 50% in size.
Settings: MCF 10A DNA re-replication, Hoechst nuclear intensity, 48 h; series mostly up to 46.1 µM
For CC(C)(C)c1ccccc1OCC(=O)NCCCn1ccnc1, the Potency was inconclusive [activator, partial curve, poor fit]. With CN(c1ccccc1)C1CCCCC1NS(=O)(=O)c1ccc(Cl)cc1 (stereo not drawn) the Potency was inconclusive [activator, single point]. For CSc1nnc(N2C(=O)C(O)=C(C(=O)c3ccc(C)o3)C2c2ccc(C)cc2)s1 (stereo not drawn), the Potency was inconclusive [activator, single point]. For O=C(Nc1ccccc1-c1ccccc1)C12CC3CC(CC(C3)C1)C2, the Potency was inconclusive [activator, single point]. With COC(=O)c1ccc(/C=N/NC(=O)c2ccccc2Cl)cc1 the Potency was “inactive”. In the case of COc1ccc(C)cc1N(CC(=O)N/N=C/c1ccc2c(c1)OCO2)S(C)(=O)=O, the Potency is reported as inconclusive [activator, single point]. For Cc1nn(-c2ccccc2)c(C)c1NC(=O)COc1ccc([N+](=O)[O-])cc1, the Potency was “inactive”. In the case of O=C1C=C(c2ccccc2)CC(c2ccc(F)cc2)C1 (stereo not drawn), the Potency is reported as “inactive”. For O=C1NC[C@@H](Cc2cccc3ccccc23)N(CC2(c3ccccc3)CC2)C1=O, the Potency was inconclusive [activator, single point]. For O=C(CSc1nc2ccccc2n1-c1ccccc1)Nc1ncc(Cl)cc1Cl, the Potency was inconclusive [activator, partial curve, poor fit]. For Cc1ccc(-n2c(Cl)c(Cl)nc(Cl)c2=O)cc1, the Potency was active: 1.84 µM. For CC(=O)Nc1ccc(S(=O)(=O)NNc2ccc([N+](=O)[O-])cc2)cc1, the Potency was inconclusive [activator, single point]. With COc1ccccc1NC(=O)Nc1nc(CC(=O)N2CCN(c3ccc(F)cc3)CC2)cs1 the Potency was inconclusive [activator, single point]. In the case of COc1ccc(S(=O)(=O)NCC2CCCN(C(=O)C3CCCC3)C2)cc1 (stereo not drawn), the Potency is reported as inconclusive [activator, partial curve, poor fit]. For COCc1nnc(SCC(=O)NCc2ccccc2)n1-c1ccccc1, the Potency was inconclusive [activator, full curve, poor fit]. In the case of O=C(CN1CCN(Cc2ccccc2)CC1)Nc1nc2ccccc2s1, the Potency is reported as inconclusive [activator, single point]. With COC(=O)c1ccc(COc2ccc(/C=N/NC(N)=S)cc2)o1 the Potency was inconclusive [activator, partial curve, poor fit]. For CCc1ccc(NC(=O)C(C)OC(=O)c2cc(=O)[nH]c3ccc(S(=O)(=O)Nc4ccc(F)cc4)cc23)cc1 (stereo not drawn), the Potency was active: 20.6 µM. With CCC(=O)c1ccc(N2CCN(C(=O)c3cccs3)CC2)c(F)c1 the Potency was active: 6.51 µM. With COC(=O)c1sccc1NC(=O)c1ccc(Br)s1 the Potency was inconclusive [activator, full curve, poor fit]. With CCOC(=O)c1nnc(-c2ccccc2)nc1Sc1c(Cl)cccc1Cl the Potency was active: 14.6 µM. For COc1ccc(-n2nc(C(=O)NCCCN3CCCC3=O)c3c4ccccc4n(C)c3c2=O)cc1Cl, the Potency was inconclusive [activator, single point]. For Cc1ccc(C2(CCNC(C)c3cccs3)CCOC(C(C)C)C2)cc1 (stereo not drawn), the Potency was “inactive”. In the case of CCOC(=O)c1c(C)n(C(=O)c2ccco2)c(=O)n1C(=O)c1ccco1, the Potency is reported as “inactive”. For CC(=O)NCCNC(=O)c1ccc(Cn2c(=O)[nH]c3ccsc3c2=O)cc1, the Potency was “inactive”. In the case of NS(=O)(=O)c1ccc(CCN=C(NS(=O)(=O)c2cccs2)c2ccccc2)cc1, the Potency is reported as “inactive”. In the case of COc1c(Cl)cnn(-c2ccc(C)cc2)c1=O, the Potency is reported as inconclusive [activator, single point]. In the case of Cc1cc(C)c(S(=O)(=O)c2ccccc2)c(OC(=O)c2c(F)cccc2Cl)n1, the Potency is reported as active: 16.4 µM. For CC(C)c1ccc(NC(=S)NN(c2ccccc2)c2ccccc2)cc1, the Potency was inconclusive [activator, partial curve, poor fit]. In the case of CCCC(=O)Nc1nn(CC(C)C)c2nc3cc(C)ccc3cc12, the Potency is reported as inconclusive [activator, single point]. For COc1ccc2[nH]c3c(c2c1)CCN1C(=O)C(CC(=O)NCCN2CCOCC2)C[C@H](C(=O)N(C(C)C)C(C)C)[C@@]31C (stereo partly drawn), the Potency was “inactive”. With O=C(c1[nH]ncc1-c1cccc(Br)c1)C1CO1 (stereo not drawn) the Potency was inconclusive [activator, single point]. For CCCn1c2ccccc2c2cnn(CC(=O)NCCCN3CCCC(C)C3)c(=O)c21 (stereo not drawn), the Potency was inconclusive [activator, single point]. In the case of CCN1CCN(C(=O)CN(c2ccc(F)cc2)S(=O)(=O)c2ccc(OC)c(OC)c2)CC1, the Potency is reported as “inactive”. For C/C(=C\C(=O)c1ccccc1)NNC(=O)c1ccc(Cl)cc1, the Potency was inconclusive [activator, partial curve]. In the case of O=C(/C=C/c1ccccc1)N1CCN(Cc2nc3ccccc3c(=O)[nH]2)CC1, the Potency is reported as inconclusive [activator, partial curve]. With Cc1ccc(CN(CCO)CCO)cc1 the Potency was inconclusive [activator, single point]. In the case of COc1ccccc1N1CCN(CCCCOc2cccc3ccccc23)CC1, the Potency is reported as inconclusive [activator, single point]. For CC(C)(C)C(=O)N1NC(=Nc2ccccc2)SC1(C)C, the Potency was “inactive”. For O=C(NCc1ccccc1)c1ccc(S(=O)(=O)N2CCCc3ccccc32)cc1, the Potency was inconclusive [activator, single point]. With C/C(CC(=O)Nc1cccnc1)=N\NC(=O)c1ccc([N+](=O)[O-])c(Cl)c1 the Potency was “inactive”. In the case of CCN(c1ccc(NC(=O)CSc2ccc3c(c2)OCCO3)cc1)C(C)C, the Potency is reported as inconclusive [activator, single point]. In the case of CCN(C[C@H]1N[C@@](Cc2ccccc2)(C(=O)OC)[C@H]2C(=O)N(C)C(=O)[C@@H]12)S(=O)(=O)c1ccc(-c2ccccc2)cc1, the Potency is reported as inconclusive [activator, partial curve, poor fit].
Potency means the concentration at half of the fitted maximal effect; tags describe the fitted curve by direction and shape.
